Assay results published in PubChem BioAssay (NCI).
Several values for one entry are separate records, joined by “and”; a condition that tells them apart may be missing. Identical values can stand only once.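 1) Cells in 96-well plates. 2) Compound, 48 h, 5 concentrations. 3) Linear interpolation between surrounding doses. 4) Unreached endpoint = highest concentration. GI50 = concentration required for 50% inhibition of growth. TGI denotes the concentration required for complete inhibition of growth.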

System: NCI-H322M lung
Assay: inhibition of tumour cell growth, NCI panel, 48 h

Row | SMILES | TGI | GI50
1 | C[C@@H]1OC(=O)C[C@H]2CC(=O)N(CCC3CN(S(=O)(=O)C(F)(F)F)c4ccc(Cc5ccc6c(c5)C(CCN5C[C@H]7[C@@H](CC(=O)O[C@H]7C)CC5=O)CN6S(=O)(=O)C(F)(F)F)cc43)C[C@@H]21 (some centres undefined) | > 100 µM | 
2 | O=C1NC(N/N=C/c2ccccc2)=N/C1=C\c1cccs1 | 51.3 µM | 
3 | CCn1c(-c2ccccc2)nc2c1C(=O)c1ccccc1C2=O | > 100 µM | 
4 | CN(C)c1ccc(/C=C/c2ccnc3ccccc23)cc1N | 35.2 µM | 
5 | Cc1cc(C)nc(NS(=O)(=O)c2ccc(NNC(=O)c3cccc4c(NNc5ccc(S(=O)(=O)Nc6nc(C)cc(C)n6)cc5)c5ccccc5nc34)cc2)n1 | 45.2 µM | 
6 | CC(C)/C(Cl)=N\OC(=O)Nc1ccc(F)c([N+](=O)[O-])c1 | 26.7 µM | 
7 | O=c1oc2cccnc2n1CCN1CCN(c2ccc(Oc3ccccc3)cc2)CC1 | > 100 µM | 
8 | CC1CC(=O)C(CC(=O)O)C1C(C(=O)C(=O)Nc1c(C#N)cccc1[N+](=O)[O-])[N+](=O)[O-] (centres undefined) | > 100 µM | 
9 | Cc1cc(N(CCC#N)CCC#N)ccc1/C(N=Nc1ccccc1)=N\NC(=O)c1ccccc1 | > 100 µM | 
10 | O=C1/C(=C/c2ccc(Cl)cc2)N=C(c2ccccc2)N1C1Nc2cc3c(cc2S1)NC(N1C(=O)/C(=C/c2ccc(Cl)cc2)N=C1c1ccccc1)S3 (centres undefined) | > 100 µM | 
11 | COc1ccc(N2CCN(Cc3c(C(C)=O)[n+](=O)c4ccccc4n3[O-])CC2)cc1 | > 100 µM | 
12 | CC(C)[Si](OCC1CC(C[C@H]2CC(C[C@H]3C[C@@H](CO[Si](C(C)C)(C(C)C)C(C)C)OC(C)(C)O3)OC(C)(C)O2)OC(C)(C)O1)(C(C)C)C(C)C (some centres undefined) | > 100 µM | 
13 | CC(=O)[O-].CC(=O)[O-].O=C(N/N=C/c1cc(Cl)cc(Cl)c1[OH2+])c1ccncc1.[Zn+2] | > 100 µM | 
14 | C#C[C@@]1(O)CCCC2=CC(=O)C[C@]21C | > 100 µM | 
15 | O=C(Nc1ccccc1)Nn1c(-c2cccs2)nc2ccc(I)cc2c1=O | 64.9 µM | 
16 | Cc1cc(NCCCCNc2ccnc3cc(Cl)ccc23)nc(Nc2ccc(C(=O)N3CCCC3)cc2)n1 | 11.8 µM | 3.04 µM
17 | O=c1c2ccccc2c2c1c1c3ccccc3c(=O)c1c1c3ccccc3c(=O)c21 | > 100 µM | 
18 | COc1cccc(C2C(C(=O)O)=C(CO)Oc3cc4c(cc32)OCO4)c1 (centres undefined) | > 100 µM | 
19 | N#Cc1c(NC(=O)c2cccc3ccccc23)sc2c1CCCC2 | > 25 µM | 0.162 µM
20 | NC(CCCCN=Cc1nc(-c2ccccc2)oc1O)C(=O)O (centres undefined) | > 100 µM | 
21 | C=C(CN(C)C)C(=O)c1cc(C)ccc1C | 43.6 µM | 
22 | CC(=O)NC(CCCCNC(=O)OC(C)(C)C)C(=O)O (centres undefined) | > 100 µM | 
23 | O=C(O)c1cncc(C(=O)O)c1 | > 100 µM | 
24 | Cn1cnc([N+](=O)[O-])c1Sc1nc2cccnc2s1 | > 100 µM | 

Row | SMILES | TGI | GI50
25 | O=C(CC(O)c1ccncc1)c1ccccc1 (centres undefined) | > 100 µM | 28.5 µM
26 | O=c1oc2cc(O)ccc2cc1-c1nc2ccccc2s1 | 74.5 µM | 
27 | COc1cc(-c2c3c([nH]c(=O)c2C#N)-c2cc([N+](=O)[O-])ccc2CCC3)cc(OC)c1OC | > 100 µM | 
28 | CCCCCCCCCCCCSC(=NC)NC | 12.5 µM | 3.34 µM
29 | Cc1ccc(NSc2ccccc2[N+](=O)[O-])cc1 | 22.3 µM | 1.56 µM
30 | CCOC(=O)N[C@H]1CCc2cc(O)c(OC)c(OC)c2-c2ccc(SC)c(=O)cc21 | > 16.4 µM | 
31 | CC1(C)N=C(N)N=C(N)N1c1ccc(OCC(=O)N2CCOCC2)c(Cl)c1 | > 100 µM | 0.721 µM
32 | O=C1CCCC(=O)C1=C(O)CCCCCCCCCCc1ccccc1 | > 100 µM | 
33 | O=C1SC(c2ccccc2)(c2ccccc2)c2ccccc21 | > 100 µM | 
34 | O=c1c[n+](-c2ccccc2)[nH]o1 | > 100 µM | 
35 | COC(=O)c1cc2c3ccccc3n3c(=O)c4cc5cc(OC)c(N(S(=O)(=O)c6ccc(C)cc6)S(=O)(=O)c6ccc(C)cc6)cc5nc4c(n1)c23 | > 100 µM | > 100 µM
36 | Cc1[nH]n(-c2ccc(S(=O)(=O)O)cc2)c(=O)c1N=Nc1ccccc1 | > 100 µM | 
37 | C=CCOC(=O)CCCCCCCCCCCCCCCOC(=O)c1c(CCC[C@@H](C)O[Si](C)(C)C(C)(C)C)nc(=O)n2c1CC[C@H]2CC1(CC/C=C\[C@H](CC)O[Si](C(C)C)(C(C)C)C(C)C)OCCO1 | > 100 µM | 
38 | O=C(N1CCC(CN=c2cc3n(-c4ccc(Cl)cc4)c4ccccc4nc-3cc2Nc2ccc(Cl)cc2)CC1)N1CC1 | 3.24 µM | 1.78 µM
39 | CCCC(=O)/C=C/S/C=C/C(=O)CCC | 38.8 µM | 
40 | CNc1cccnc1/C=N/NC(N)=S | > 10 µM | 
41 | N#CC(C#N)=Cc1ccc(C=C2SC3=C(SCCS3)S2)s1 | > 100 µM | 
42 | Cc1ccc(/C=C/C(=O)c2ccc(N)cc2)c(C)c1 | 33 µM | 16.2 µM
43 | CCCC(=O)Nc1cc([N+](=O)[O-])c([N+](=O)[O-])cc1OC | 25.7 µM | 
44 | COc1cc2c3c(n(CCCCNC(=O)OCC4c5ccccc5-c5ccccc54)c(=O)c2cc1OC)-c1cc2c(cc1C3=O)OCO2 | > 100 µM | 35.7 µM
45 | c1cc2cc(c1)CN1CCNCCN(CCNCC1)Cc1cccc(c1)CN1CCNCCN(CCNCC1)C2 | > 100 µM | 
46 | O=C1Cc2ccccc2N1c1c(Cl)cccc1Cl | > 100 µM | 
47 | COc1ccc(N=Nc2c(C)c(C#N)c(=S)n(C3OC(COC(C)=O)C(OC(C)=O)C(OC(C)=O)C3OC(C)=O)c2-c2ccccc2)cc1 (centres undefined) | 25.6 µM | 
48 | Cc1ccc(NC(=O)COC(=O)c2cccc3c(=O)c4ccccc4[nH]c23)cc1 | > 100 µM | 

Row | SMILES | TGI | GI50
49 | COc1ccc2c(c1)O[C@H]1c3ccc(O)cc3OC[C@@H]21 | > 100 µM | 
50 | CCN(CC)CCC(=O)N1CCc2c([nH]c3ccccc23)C1c1cccnc1 (centres undefined) | > 100 µM | 
51 | COc1ccc(NC(=O)COC(=O)c2cccc3c(=O)c4ccccc4[nH]c23)cc1 | 97.9 µM | 
52 | Fc1ccc(NCn2nc(COc3ccccc3Cl)n(/N=C/c3ccc(-c4ccc(Cl)cc4Cl)o3)c2=S)cc1Cl | > 100 µM | 
53 | Cc1ccc([N+](=O)[O-])cc1NC(=O)C(=O)Cc1cc(=O)oc2cc(O)ccc12 | > 100 µM | 
54 | COc1cc(C(=O)N2CCN(c3ccccc3OC)CC2)c(N)cc1OCc1ccccc1 | > 100 µM | 31.7 µM
55 | O=C1c2ccccc2C(=O)c2c1oc(=O)c1ccccc21 | 20 µM | 
56 | CC1CC(C)/C(=N/NC(N)=O)C(C(O)CC2CCC(=O)NC2=O)C1 (centres undefined) | 49.7 µM | 3.96 µM
57 | O=C1/C(=C/c2ccc([N+](=O)[O-])o2)Oc2ccccc21 | 24.6 µM | 11.6 µM
58 | COP(=O)(OC)C(O)/C=C/c1ccco1 (centres undefined) | > 100 µM | 
59 | CC(=O)Nc1ccc(S(=O)(=O)[N-]C2C(=O)c3ccccc3C(=O)C2[n+]2ccccc2)cc1 (centres undefined) | > 100 µM | 
60 | COC(=O)c1c(C)cc2c(c1O)C1(O)C(=O)c3cc4c(c(O)c3C(=O)C1(OC)C(O)C2)C(=O)C=C(NC1OC(C)C(OC)C(O)C1OC)C4=O (centres undefined) | 0.955 µM | 
61 | O=C1N(CN2CCOCC2)CN(CN2CCOCC2)C(=O)N1Cc1ccccc1 | > 100 µM | 
62 | CC(C)C(Sc1nc(-c2ccccc2)c(-c2ccccc2)[nH]1)C(=O)N/N=C/c1ccc([N+](=O)[O-])cc1 (centres undefined) | > 100 µM | 
63 | COc1ccc(C(=O)Cn2c(C(C)=O)nc3ccccc32)cc1 | > 100 µM | 
64 | O=c1[nH]ccc2nc(-c3ccc(CN4CCC(c5nc(-c6ccccn6)n[nH]5)CC4)cc3)c(-c3ccccc3)cc12 | > 100 µM | 25.4 µM
65 | COP(=O)(OC)C(O)/C=C(\Cl)c1ccc(Cl)cc1 (centres undefined) | > 100 µM | 
66 | CN(C)CC(C)(C)C(/C=C/c1ccccc1)=N\Nc1ccccc1 | > 100 µM | 
67 | OCCCCn1cc(Cn2ncc3c(SCc4ccccc4)ncnc32)nn1 | > 100 µM | 
68 | CNC(=O)c1n[nH]n(Cc2ccccc2)c1=S | > 100 µM | 
69 | c1ccc2c(Nc3ccc(Oc4ccc(Nc5c6ccccc6nc6ccccc56)cc4)cc3)c3ccccc3nc2c1 | 0.394 µM and 0.736 µM | 0.194 µM and 0.249 µM
70 | CC(C)=CCc1ccc(O)c(=O)cc1C(C)C | > 30.9 µM | 0.378 µM
71 | O=NNc1cnccn1 | > 1250 µM | 
72 | O=C(O)CSc1nnc(CCCCCCCCc2nnc(SCC(=O)O)o2)o1 | > 100 µM | 

Row | SMILES | TGI | GI50
73 | O=C(Nc1ccc(Cl)cc1)c1ccc([N+](=O)[O-])o1 | 12.4 µM | 4.73 µM
74 | Cc1nc(N)sc1N=Nc1cc(Cl)c([N+](=O)[O-])cc1Cl | 41.8 µM | 
75 | CC(=O)Nc1ccc2c(c1)C(=O)c1cccc(F)c1-2 | > 100 µM | 
76 | COc1cc2c(oc(=O)c3cc4ccoc4c(OC)c32)c2cccc(O)c12 | > 100 µM | 
77 | O=C1Nc2ccccc2/C1=C/c1ccccc1 | 30.7 µM | 
78 | CCOP(=O)(OCC)/C(C#N)=C/c1ccc[nH]1 | > 100 µM | 
79 | COc1ccc2c(c1)C(=O)/C(=C/c1ccc([N+](=O)[O-])s1)O2 | > 25 µM | 2.53 µM
80 | Cn1c(=O)c2[nH]c(C3CC(=O)CC(c4nc5c([nH]4)c(=O)n(C)c(=O)n5C)N3)nc2n(C)c1=O (centres undefined) | > 100 µM | 
81 | COc1cc2c(cc1OCCCCCn1c(-c3ccco3)nc3ccccc31)N=C[C@@H]1CCCN1C2=O |  | 0.0277 µM
82 | COc1cc(CNC(=O)[C@H](Cc2ccc(O)cn2)NC(C)=O)cc(OC)c1 | > 100 µM | 
83 | COCC(=O)OC1CCn2c1nc1c2C(=O)C(C)=C(NC(C)=O)C1=N (centres undefined) | 29.3 µM | 
84 | COc1cc(/C=C/C(=O)C(C(=O)/C=C/c2ccc(OC(=O)CCNc3nnc(C)s3)c(OC)c2)C(=O)CCNc2nnc(C)s2)ccc1OC(=O)CCNc1nnc(C)s1 | 18.6 µM | 6.77 µM
85 | O=C(N/N=C/C=C/c1ccc([N+](=O)[O-])o1)c1ccc(Br)s1 | > 100 µM | 
86 | COCOCc1cc(OCc2ccccc2)c(OC)cc1Br | > 100 µM | 
87 | Cn1c(=O)c2nc3nnc(C#N)c(N)n3c2n(C)c1=O | > 100 µM | 
88 | COC(=O)c1cc(-c2ccc(-c3ccc(O)cc3)cc2)cc(-c2ccc(-c3ccc(O)cc3)cc2)c1 | 25.7 µM | 
89 | COc1cc2c3c(n(CCCNC(=O)OCC4c5ccccc5-c5ccccc54)c(=O)c2cc1OC)-c1cc2c(cc1C3=O)OCO2 | > 100 µM | 62.2 µM
90 | COc1ccc(Cn2cc3c(c2-c2ccc(O)cc2)CCc2cnoc2-3)cc1 | 19.9 µM | 0.498 µM
91 | c1ccc2c(c1)CCN1CCc3c([nH]c4ccccc34)C21 (centres undefined) | > 100 µM | 
92 | C=C(C)[C@@H]1CC[C@]2(C(=O)O)CC[C@]3(C)[C@H](CC[C@@H]4[C@@]5(C)C[C@@H](CC#Cc6ccc(Br)cc6)C(=O)C(C)(C)[C@@H]5CC[C@]43C)[C@@H]12 | > 100 µM | 15.5 µM
93 | Cc1nn(-c2ccccc2)c2c1C(c1cc3ccccc3nc1Cl)NC(=S)N2 (centres undefined) | > 100 µM | 
94 | CC1(C)CCCCCC(C)(CCCCCCCCCCCO)C1=O (centres undefined) | 28.6 µM | 
95 | O=C(Nc1cccc([N+](=O)[O-])c1)c1ccc2ccccc2c1O | 8.93 µM | 2.95 µM
96 | CCN(CC)CCNc1ccc2ncn3c4c(OC)cccc4c(=O)c1c23 | 20.2 µM | 
